In PMC10611751:
Results are given in words; binding and its absence hold for the method and conditions named. Some entries that bind do so weakly or less than the wild type.

Amino acid sequences for entries named in this document (tags omitted). A change or cut given only in a name is not applied to a line headed by its entry. Residues count along the entry.
UniProt P09803, residues 734-884: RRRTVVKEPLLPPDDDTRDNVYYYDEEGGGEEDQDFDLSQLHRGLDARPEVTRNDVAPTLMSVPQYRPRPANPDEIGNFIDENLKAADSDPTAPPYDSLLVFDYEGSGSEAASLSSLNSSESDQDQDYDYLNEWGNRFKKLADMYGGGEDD

B1: E-cadherin site-2 Y829A and Y837A (domain or fragment, UniProt P09803 828-842)
chain: PADSLLVFDAEGSGS
B2: E-cadherin site-1 Y755A (domain or fragment, UniProt P09803 755-770)
chain: AYYDEEGGGEEDQDFD
B3: E-cadherin site-3 W867A (domain or fragment, UniProt P09803 854-869)
chain: ESDQDQDYDYLNEAGN
B4: E-cadherin site-2 Y829A (domain or fragment, UniProt P09803 828-842)
chain: PADSLLVFDYEGSGS
B5: E-cadherin site-3 Y861A (domain or fragment, UniProt P09803 854-869)
chain: ESDQDQDADYLNEWGN
B6: E-cadherin site-3 Y861A, Y863A, and W867A (domain or fragment, UniProt P09803 854-869)
chain: ESDQDQDADALNEAGN
B7: E-cadherin site-2 Y837A (domain or fragment, UniProt P09803 828-842)
chain: PYDSLLVFDAEGSGS
B8: E-cadherin site-1 Y755A, Y756A, and Y757A (domain or fragment, UniProt P09803 755-770)
chain: AAADEEGGGEEDQDFD
B9: E-cadherin site-1 Y757A (domain or fragment, UniProt P09803 755-770)
chain: YYADEEGGGEEDQDFD
B10: E-cadherin site-3 Y863A (domain or fragment, UniProt P09803 854-869)
chain: ESDQDQDYDALNEWGN
B11: E-cadherin site-1 Y756A (domain or fragment, UniProt P09803 755-770)
chain: YAYDEEGGGEEDQDFD
B12: Ankyrin-G 24 ANK repeats (residues 38-855) (domain or fragment, UniProt O70511 38-855)
chain: KSDANASYLRAARAGHLEKALDYIKNGVDVNICNQNGLNALHLASKEGHVEVVSELLQREANVDAATKKGNTALHIASLAGQAEVVKVLVTNGANVNAQSQNGFTPLYMAAQENHLEVVRFLLDNGASQSLATEDGFTPLAVALQQGHDQVVSLLLENDTKGKVRLPALHIAARKDDTKAAALLLQNDTNADIESKMVVNRATESGFTPLHIAAHYGNINVATLLLNRAAAVDFTARNDITPLHVASKRGNANMVKLLLDRGAKIDAKTRDGLTPLHCGARSGHEQVVEMLLDRAAPILSKTKNGLSPLHMATQGDHLNCVQLLLQHNVPVDDVTNDYLTALHVAAHCGHYKVAKVLLDKKANPNAKALNGFTPLHIACKKNRIRVMELLLKHGASIQAVTESGLTPIHVAAFMGHVNIVSQLMHHGASPNTTNVRGETALHMAARSGQAEVVRYLVQDGAQVEAKAKDDQTPLHISARLGKADIVQQLLQQGASPNAATTSGYTPLHLSAREGHEDVAAFLLDHGASLSITTKKGFTPLHVAAKYGKLEVASLLLQKSASPDAAGKSGLTPLHVAAHYDNQKVALLLLDQGASPHAAAKNGYTPLHIAAKKNQMDIATSLLEYGADANAVTRQGIASVHLAAQEGHVDMVSLLLSRNANVNLSNKSGLTPLHLAAQEDRVNVAEVLVNQGAHVDAQTKMGYTPLHVGCHYGNIKIVNFLLQHSAKVNAKTKNGYTPLHQAAQQGHTHIINVLLQNNASPNELTVNGNTALAIARRLGYISVVDTLKVVTEEIMTTTTITEKHKMNVPETMNEVLDMS

Each binder was assayed against Ankyrin-G 24 ANK repeats (residues 38-855) (UniProt O70511) (assay: ITC; E-cadherin proteins in the syringe (e.g. 200 μM Trx-E-cadherin) titrated into AnkG in the cell (e.g. 20 μM Trx-AnkG R1-24); 25 °C; 50 mM Tris, 100 mM NaCl, 1 mM EDTA, 1 mM DTT, pH 7.8; one-site binding model; both purified).

Row | binding | Binder
1 | no binding | B1
2 | binds | B2
3 | binds | B3
4 | binds | B4
5 | binds | B5
6 | no binding | B6
7 | binds | B7
8 | no binding | B8
9 | binds | B9
10 | binds | B10
11 | binds | B11

Each binder was assayed against E-cadherin C-terminal domain (residues 734-884) (mouse) (UniProt P09803) (assay: SEC-MALS; analytical gel filtration with static light scattering; AnkG R1-24, E-cadherin CTD and β-catenin 1-781 mixed at 1:1:1, 2:1:1, 3:1:1 and 4:1:1 molar ratios; also E-cadherin CTD with β-catenin 1-781 alone; both purified).

Row | binding | Binder
12 | binds | B12

What follows are binders tested against E-cadherin C-terminal domain (residues 734-884) (mouse) (UniProt P09803) (assay: NMR titration; [1H,15N]-HSQC of 100 μM 15N-labelled E-cadherin CTD with 50 μM or 100 μM unlabelled AnkG R1-24; 100 mM phosphate, 100 mM NaCl, pH 7.2; 283 K; both purified).

Row | binding | Binder
13 | binds | B12
